Results reported in PubChem BioAssay AID1347165 (National Center for Advancing Translational Sciences (NCATS), 2019).
The campaign covered roughly 220,000 compounds. About 5,700 (2.6%) were called active. Inconclusive means that the source gave no clear call. Such entries were picked first, then a sample of the others. Calls come from the whole dose curve; as a rule, active = well fitted inhibition curve with a large enough effect; inconclusive = small, poorly fitted or top-dose-only effect; inactive = no such curve, though single readings can be large or run the other way. Potencies of inconclusive entries are doubtful fits and often do not repeat.
Note: nearly all actives have a fitted effect of over 70% in size.
Potency is the fitted concentration of half-maximal effect; tags give direction and shape of the fitted curve.
Throughout, for activity change, negative = inhibition: 0% is about no effect.

These molecules were tested against Lysine-specific demethylase 5B (Homo sapiens) (UniProt Q9UGL1) (assay: Primary screen for KDM5B Histone Demethylases FDH-coupled qHTS). Conditions: FDH-coupled NADH fluorescence (FDH is formaldehyde dehydrogenase); activity change, negative = inhibition: at 57.7 µM (top of the series) unless noted.
Sequence of UniProt Q9UGL1 (Q9UGL1 whole entry, looked up): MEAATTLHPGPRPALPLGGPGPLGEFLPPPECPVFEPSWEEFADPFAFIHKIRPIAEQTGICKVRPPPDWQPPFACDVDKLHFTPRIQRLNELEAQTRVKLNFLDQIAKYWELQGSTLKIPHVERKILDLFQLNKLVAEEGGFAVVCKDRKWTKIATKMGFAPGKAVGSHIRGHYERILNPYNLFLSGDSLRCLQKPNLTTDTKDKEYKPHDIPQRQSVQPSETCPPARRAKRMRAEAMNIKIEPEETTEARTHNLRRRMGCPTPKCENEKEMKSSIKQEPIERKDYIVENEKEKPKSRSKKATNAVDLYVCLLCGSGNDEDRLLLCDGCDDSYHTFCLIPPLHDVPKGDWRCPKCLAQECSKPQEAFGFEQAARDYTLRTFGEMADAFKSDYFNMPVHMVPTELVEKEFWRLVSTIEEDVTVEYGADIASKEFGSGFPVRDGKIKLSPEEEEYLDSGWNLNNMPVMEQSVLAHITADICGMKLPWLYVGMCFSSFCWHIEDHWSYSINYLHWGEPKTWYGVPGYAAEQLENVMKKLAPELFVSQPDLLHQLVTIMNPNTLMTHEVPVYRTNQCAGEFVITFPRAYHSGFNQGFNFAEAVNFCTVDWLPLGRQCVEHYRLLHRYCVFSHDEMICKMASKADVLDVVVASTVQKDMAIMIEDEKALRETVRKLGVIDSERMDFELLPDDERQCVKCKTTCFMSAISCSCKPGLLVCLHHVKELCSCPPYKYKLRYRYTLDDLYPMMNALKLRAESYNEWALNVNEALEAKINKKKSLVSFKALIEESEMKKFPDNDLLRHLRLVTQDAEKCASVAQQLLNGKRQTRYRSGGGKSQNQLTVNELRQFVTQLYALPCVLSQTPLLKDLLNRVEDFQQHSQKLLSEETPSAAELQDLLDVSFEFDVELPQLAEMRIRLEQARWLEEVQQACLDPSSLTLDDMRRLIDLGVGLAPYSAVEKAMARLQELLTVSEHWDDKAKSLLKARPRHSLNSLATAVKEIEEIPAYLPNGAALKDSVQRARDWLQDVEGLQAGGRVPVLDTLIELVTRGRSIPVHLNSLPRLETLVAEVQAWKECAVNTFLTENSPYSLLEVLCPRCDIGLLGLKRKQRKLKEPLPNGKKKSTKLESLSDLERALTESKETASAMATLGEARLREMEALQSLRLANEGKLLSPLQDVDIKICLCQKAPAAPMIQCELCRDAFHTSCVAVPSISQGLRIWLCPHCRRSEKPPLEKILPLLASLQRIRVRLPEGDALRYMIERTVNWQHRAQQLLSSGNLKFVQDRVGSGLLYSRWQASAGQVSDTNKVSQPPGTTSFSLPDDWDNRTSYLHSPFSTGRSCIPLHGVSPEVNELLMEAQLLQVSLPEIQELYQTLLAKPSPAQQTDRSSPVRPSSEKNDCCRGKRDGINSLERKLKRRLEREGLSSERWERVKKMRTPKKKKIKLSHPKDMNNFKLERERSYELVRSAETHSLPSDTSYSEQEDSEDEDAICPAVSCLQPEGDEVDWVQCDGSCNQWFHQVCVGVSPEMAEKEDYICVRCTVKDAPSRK
Summary of the method: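 KDM5BΔAP (200 nM final) in 50 mM HEPES pH 7.5, 0.01% Tween-20 was preincubated 10 min at RT with compound over a concentration range. Substrate mix (H3K4me3 12.5 µM, α-KG 25 µM, Fe²⁺, ascorbate, NAD⁺, FDH) was added, and NADH fluorescence change over 30 min gave dose-response curves.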
For `COC(=O)CNC(=O)C12CC3CC(C1)CC(c1ccccc1)(C3)C2`, the Potency was “inactive”.
In the case of `Cc1cc(-c2ccc(C)c(S(=O)(=O)Nc3cccc(C)n3)c2)on1`, the Potency is reported as inconclusive: 31.6 µM [inhibitor, partial curve, poor fit].
`NC(=O)CN1C(=O)CO[C@H]2CN(CC3CCCCC3)C[C@H]21` was tested, and the Potency was inconclusive: 28.2 µM [inhibitor, single point].
For `CCOC(=O)c1ccc(N2CCN(C(C)=O)CC2)c(NC(=O)c2ccc(CC)cc2)c1`, the Potency was inconclusive: 39.8 µM [inhibitor, single point].
With `Cc1cc(N2CCN(Cc3nc(C(C)C)no3)CC2)nc(C(C)C)n1` the Potency was “inactive”.
For `Clc1ccc(-c2ccc(CNCC3CCNCC3)o2)c(Cl)c1`, the Potency was “inactive”.
`C/C(=N/Nc1ccccc1)c1ccc(Cl)s1` was tested, and the Potency was “inactive”.
With `CCCn1nc(C(=O)Nc2ccc(Br)cc2F)c2ccccc2c1=O` the Potency was “inactive”.
In the case of `COCC1CN(C(C)=O)CC12CCN(Cc1ccccc1OC(C)C)CC2` (stereo unspecified), the Potency is reported as inconclusive: 25.1 µM [inhibitor, single point].
With `Cc1c(CC(=O)NCCC(C)C)c(=O)oc2cc3c(cc12)CCC(C)(C)O3` the Potency was inconclusive: 6.31 µM [inhibitor, full curve, poor fit].
In the case of `Cc1ccc(-n2nc(CO)c(C(=O)NCc3ccccn3)n2)cc1`, the Potency is reported as inconclusive: 31.6 µM [inhibitor, partial curve, poor fit].
`C[C@@H](NC(=O)C1CCCCC1)c1c(-c2ccc(Cl)cc2)noc1C(=O)O` was tested, and the Potency was “inactive”.
With `Cn1cccc1/C=C(\C#N)c1cccc(Br)c1` the Potency was “inactive”.
In the case of `N#CC1(c2ccc(-c3cccc(CN4CCOCC4)c3)cc2)CCCC1`, the Potency is reported as “inactive”.
With `O=c1c2c(n(CCOc3ccccc3)n1-c1ccccc1)CN(Cc1ccc(F)cc1)CC2` the Potency was inconclusive: 39.8 µM [inhibitor, single point].
`c1ccc2oc(CN3Cc4[nH]cnc4C[C@H]3c3nc(-c4cnccn4)no3)cc2c1` was tested, and the Potency was inconclusive: 31.6 µM [inhibitor, single point].
In the case of `Cc1ccc(F)cc1S(=O)(=O)N1C[C@@H](C)[C@@](C)(O)C1`, the Potency is reported as “inactive”.
In the case of `Cc1ccc(-c2nc(C(=O)N3CCN(c4cccc(C)c4)CC3)no2)cc1`, the Potency is reported as “inactive”.
`Oc1ccc(N=Cc2cccc(OCc3ccccc3)c2)cc1` was tested, and the Potency was inconclusive: 10 µM [inhibitor, partial curve, poor fit].
`O=C1COCC2(CN(c3ccc(C(F)(F)F)cn3)C2)CN1c1ccccc1F` was tested, and the Potency was inconclusive: 35.5 µM [inhibitor, partial curve, poor fit].
`O=C1c2cnc(-c3ccsc3)nc2OCCN1CC1CC1` was tested, and the Potency was inconclusive: 39.8 µM [inhibitor, partial curve].
For `CC(C)(CO)NCc1cc(=O)oc2cc3c(cc12)CCC3`, the Potency was “inactive”.
With `CC(C)c1noc(-c2cn(C3CCN(C(=O)c4cccc5[nH]ccc45)CC3)nn2)n1` the Potency was active: 28.2 µM.
For `COc1cccc(CNC(=O)CC(C)CC(=O)O)c1` (stereo unspecified), the Potency was “inactive”.
In the case of `Cn1nc(C(C)(C)C)cc1NC(=O)c1cccc(Br)c1`, the Potency is reported as “inactive”.
In the case of `Cc1cccc(C(=O)NCc2nnc3cc(-c4nc(C(C)C)no4)ccn23)c1`, the Potency is reported as active: 28.2 µM.
In the case of `COc1ccc2[nH]c3c(c2c1)CCNC31CCN(C(=O)COc2ccc(F)cc2)CC1`, the Potency is reported as inconclusive: 17.8 µM [inhibitor, single point].
In the case of `O=C(CCn1ccn2nc3c(c2c1=O)CCCC3)NCc1ccc(F)cc1`, the Potency is reported as “inactive”.
In the case of `c1ccc(-c2noc(-c3cncnc3NCCc3cccs3)n2)cc1`, the Potency is reported as active: 28.2 µM.
With `COc1ccc(-c2ccc3nnc(CNC(=O)c4cccc5[nH]ccc45)n3n2)cc1` the Potency was inconclusive: 17.8 µM [inhibitor, partial curve, poor fit].
`CC(C)c1ccc(CNC(C)c2ccc(S(C)(=O)=O)cc2)cc1` (stereo unspecified) was tested, and the Potency was “inactive”.
For `Cc1ccccc1OCC(=O)Nc1ccc2oc(-c3ccc(F)cc3)nc2c1`, the Potency was inconclusive: 1 µM [inhibitor, full curve, poor fit].
In the case of `O=C(Nc1nc2c(Cl)cccc2s1)c1ccc(S(=O)(=O)N2CCc3ccccc32)cc1`, the activity change, negative = inhibition is reported as inconclusive: -37.5% [inhibitor].
For `CC(=O)N(C1CC1)C1CCOC2(CCN(C(=O)COc3ccc(C)cc3)CC2)C1` (stereo unspecified), the Potency was “inactive”.
`COc1ccc(-c2[nH]ncc2CN2CCCC(C(=O)NCc3ccccc3)CCNC(=O)CC2)cc1` (stereo unspecified) was tested, and the Potency was “inactive”.
With `CCn1c(CO)nnc1C1CC(NC(=O)c2[nH]c3ccc(OC)cc3c2C)C1` (stereo unspecified) the Potency was active: 28.2 µM.
`Cc1ccc(NC(=O)c2cc3c(s2)CN(C2CC2)C3)cc1` was tested, and the Potency was inconclusive: 8.91 µM [inhibitor, partial curve].
In the case of `Cc1ccc2nc(C)c(C(=O)N(C)CCOc3ccccc3F)cc2c1`, the Potency is reported as “inactive”.
`N#CC1=C(N)Oc2c(c(=O)[nH]c3ccccc23)C1c1cccc(Cl)c1Cl` (stereo unspecified) was tested, and the Potency was inconclusive: 22.4 µM [inhibitor, partial curve, poor fit].
In the case of `Cc1ccc(-c2cc(Nc3cccc(C)c3)nc(C)n2)cc1`, the Potency is reported as inconclusive: 28.2 µM [inhibitor, single point].
With `COc1cccc(-c2c(NC(=O)c3cccc([N+](=O)[O-])c3)oc3ccc(Cl)cc3c2=O)c1` the Potency was “inactive”.
With `COc1cc(CNC(=O)c2ccc3c(c2)NC(=O)CS3)ccc1OCc1ccccc1` the Potency was “inactive”.
For `Cn1c(=O)c2c(ncn2CCC(=O)Nc2ccccc2)n(C)c1=O`, the Potency was “inactive”.
With `O=C(Nc1nnc(C2CC2)s1)c1csc(NC2CCCC2)n1` the Potency was inconclusive: 25.1 µM [inhibitor, partial curve, poor fit].
With `Cc1cc(NC(=O)c2cc3n(n2)CC(c2ccc4c(c2)OCO4)OC3)ccc1F` (stereo unspecified) the Potency was active: 28.2 µM.
With `O=C1CN(CCC2=CCCCC2)[C@H]2CS(=O)(=O)C[C@H]2N1c1ccccc1` the Potency was “inactive”.
`CC(=C/c1ccccc1)/C=C1/Cc2ccccc2C1=O` was tested, and the Potency was inconclusive: 39.8 µM [inhibitor, single point].
`CCOC(=O)c1ccc(N2C(=O)c3n[nH]c(-c4ccco4)c3C2c2ccc(OC)cc2OC)cc1` (stereo unspecified) was tested, and the Potency was inconclusive: 31.6 µM [inhibitor, partial curve, poor fit].
`O=C(N[C@H]1CCN2C(=O)c3cc(-c4ccccc4F)ccc3NC(=O)[C@@H]2C1)c1ccc(F)c(Cl)c1` was tested, and the Potency was inconclusive: 25.1 µM [inhibitor, partial curve, poor fit].
For `O=c1c2nc(-c3ccc4c(c3)OCO4)ccc2ncn1Cc1ccccn1`, the Potency was inconclusive: 56.2 µM [inhibitor, single point].
With `COc1cccc(-c2nc(S(=O)(=O)c3ccc(C)cc3)c(N3CCCCCC3)o2)c1` the Potency was inconclusive: 25.1 µM [inhibitor, partial curve, poor fit].
In the case of `O=C(c1ccccc1F)N1CCC2(CC1)CCN(CCc1ccccc1)c1ccccc1O2`, the Potency is reported as inconclusive: 17.8 µM [inhibitor, partial curve].
For `CCCCNc1oc(/C=C/c2ccc(OC)c(OC)c2)nc1C#N`, the Potency was inconclusive: 8.91 µM [inhibitor, partial curve, poor fit].
`O=C(N[C@H]1[C@H](O)[C@H](O)C[C@@H]1c1ccc(C(F)(F)F)nc1)c1nc2ccccc2s1` was tested, and the Potency was inconclusive: 56.2 µM [inhibitor, single point].
In the case of `CCOP(=O)(OCC)c1nc(-c2ccc([N+](=O)[O-])cc2)oc1NCc1ccc(C)cc1`, the Potency is reported as “inactive”.
`O=C(c1ccc(Cl)cc1)c1ccccc1C(=O)N1CCN(C(=O)CC2CCCC2)CC1` was tested, and the Potency was “inactive”.
With `CCCC(=O)Nc1ccccc1C(=O)OC/C(=N/O)c1ccc(OC)cc1` the Potency was inconclusive: 22.4 µM [inhibitor, partial curve, poor fit].
For `CCCN1CCN(C(=O)c2c(C)oc3c2CN(Cc2cccc(F)c2)CC3)CC1`, the Potency was inconclusive: 22.4 µM [inhibitor, single point].
`Cc1nc(-c2ccc(F)cc2)n(Cc2cccc(F)c2)c(=O)c1CCO` was tested, and the Potency was “inactive”.
With `Cc1csc(NC(=O)C2CC(=O)N(c3n[nH]c4ccccc34)C2)n1` (stereo unspecified) the Potency was “inactive”.
In the case of `O=C1[C@@H]2C[C@@H](CN2Cc2ccc3c(c2)OCO3)Oc2ccccc2N1Cc1ccccn1`, the Potency is reported as “inactive”.
`COc1ccc(C2=C(C)C(N3CCC(C(=O)NCc4ccc(C)o4)CC3)=NS2(=O)=O)cc1` was tested, and the Potency was inconclusive: 15.8 µM [inhibitor, partial curve, poor fit].
For `O=C(NCc1ccc2c(c1)OCO2)C1CCN(c2nccc(C(F)(F)F)n2)CC1`, the Potency was inconclusive: 22.4 µM [inhibitor, partial curve, poor fit].
`CCOc1ccc(NC(=O)Cc2cc(Cl)c3c(c2)OCCCO3)cc1S(=O)(=O)N(C)C` was tested, and the Potency was “inactive”.
`COc1cc(C(=O)N/N=C/c2cn(Cc3cccc(F)c3)c3ccccc23)ccc1O` was tested, and the Potency was inconclusive: 35.5 µM [inhibitor, single point].
With `COc1ccc2c(c1)Cc1sc(NC(=O)c3ccccc3C)nc1-2` the Potency was inconclusive: 8.91 µM [inhibitor, partial curve, poor fit].
In the case of `Cc1c(C)n(Cc2ccccc2)c2ccc(C(=O)N3CCN(c4ccccc4F)CC3)cc12`, the Potency is reported as inconclusive: 39.8 µM [inhibitor, single point].
For `CCOc1ccc(-c2cc3c(N4CCC(C(=O)NCc5cccs5)CC4)nccn3n2)cc1`, the Potency was “inactive”.
In the case of `COc1ccc(C(=O)N2CCC3(CC2)CC(O)CCO3)cc1` (stereo unspecified), the Potency is reported as inconclusive: 28.2 µM [inhibitor, single point].
With `Cc1nc2ccn(Cc3cccnc3)c(=O)c2cc1C(=O)N1CCN(c2ccccc2F)CC1` the Potency was inconclusive: 25.1 µM [inhibitor, partial curve, poor fit].
In the case of `Cc1cc(NC(=O)c2ccc3c(c2)N(C)C2CCCN2C3=O)ccc1Br` (stereo unspecified), the Potency is reported as inconclusive: 22.4 µM [inhibitor, partial curve, poor fit].
